The list shows a part of the results. At the low end of the ranking, values are background and their order means little.
biological target: SIX1-Q177R homeodomain (UniProt Q15475); test: universal protein binding microarray; settings: Universal all-10-mer PBM (8x60K, AMADID 030236), 300 nM GST-tagged protein, Alexa Fluor 488 anti-GST; buffer, salt, pH and temperature not stated; high values mean tight binding; most listed sequences are background and not binding sites; double strand, one strand shown

Question: AATTCCGG was tested. Which binding signal did it give?
Answer: The binding signal was 0.0307 E-score.

Question: ACTTTATG was tested. Which binding signal did it give?
Answer: The binding signal was -0.0956 E-score.

Question: For GTCTCTAA, which binding signal is on record?
Answer: Its binding signal is -0.161 E-score.

Question: For TCCCCACA, which binding signal is on record?
Answer: Its binding signal is -0.0623 E-score.

Question: With CAGTAATG as the sequence, how does the binding signal read?
Answer: The binding signal was -0.0785 E-score.

Question: With ATTAACGA as the sequence, how does the binding signal read?
Answer: The binding signal was -0.0496 E-score.

Question: ATGTATCA was tested. Which binding signal did it give?
Answer: The binding signal was -0.00998 E-score.

Question: How did the binding signal turn out when ATCCCGAT was run?
Answer: The binding signal was 0.113 E-score.

Question: CTCGCTCC was tested. Which binding signal did it give?
Answer: The binding signal was -0.0142 E-score.

Question: With AGGCATGC as the sequence, how does the binding signal read?
Answer: Its binding signal is -0.262 E-score.

Question: CCAATCCG was tested. Which binding signal did it give?
Answer: Its binding signal is -0.0193 E-score.

Question: For CATTCTCG, which binding signal is on record?
Answer: Its binding signal is -0.138 E-score.

Question: How did the binding signal turn out when CGCGGAGC was run?
Answer: Its binding signal is 0.00858 E-score.

Question: With CATTATAG as the sequence, how does the binding signal read?
Answer: The binding signal was -0.155 E-score.

Question: How did the binding signal turn out when AGTAAAAT was run?
Answer: Its binding signal is -0.0899 E-score.

Question: With ATGACTAA as the sequence, how does the binding signal read?
Answer: Its binding signal is -0.157 E-score.

Question: For TCGATCCA, which binding signal is on record?
Answer: Its binding signal is -0.0762 E-score.

Question: Which binding signal does the source give for ACCCCAGA here?
Answer: Its binding signal is 0.201 E-score.

Question: GAATGCCC was tested. Which binding signal did it give?
Answer: Its binding signal is -0.123 E-score.

Question: Which binding signal does the source give for GCGATCAC here?
Answer: Its binding signal is 0.0962 E-score.

Question: For CCCCTAAG, which binding signal is on record?
Answer: The binding signal was 0.172 E-score.

Question: CCCAGAAG was tested. Which binding signal did it give?
Answer: Its binding signal is -0.0599 E-score.

Question: Which binding signal does the source give for GGTGAAAC here?
Answer: Its binding signal is 0.0627 E-score.

Question: Which binding signal does the source give for CAACCTGA here?
Answer: The binding signal was -0.0569 E-score.

Question: With TCCACGGA as the sequence, how does the binding signal read?
Answer: The binding signal was -0.203 E-score.

Question: For ACCTTCAG, which binding signal is on record?
Answer: The binding signal was 0.0819 E-score.

Question: With GTACACTA as the sequence, how does the binding signal read?
Answer: The binding signal was 0.432 E-score.

Question: How did the binding signal turn out when ATTTTGGG was run?
Answer: The binding signal was -0.222 E-score.

Question: How did the binding signal turn out when GCTGGGCA was run?
Answer: Its binding signal is -0.0944 E-score.

Question: For GCGGCCCC, which binding signal is on record?
Answer: The binding signal was -0.162 E-score.

Question: How did the binding signal turn out when ACATTATC was run?
Answer: The binding signal was 0.0847 E-score.

Question: Which binding signal does the source give for GTGGAAGA here?
Answer: The binding signal was -0.113 E-score.

Question: AGGTTTAT was tested. Which binding signal did it give?
Answer: Its binding signal is -0.0717 E-score.

Question: GGCGCCCC was tested. Which binding signal did it give?
Answer: Its binding signal is -0.127 E-score.

Question: How did the binding signal turn out when CCCTTGTC was run?
Answer: Its binding signal is -0.0046 E-score.

Question: For CAATGCTG, which binding signal is on record?
Answer: Its binding signal is -0.0836 E-score.

Question: For AACGTACA, which binding signal is on record?
Answer: Its binding signal is 0.185 E-score.

Question: How did the binding signal turn out when GCCTCCCC was run?
Answer: The binding signal was -0.0247 E-score.

Question: How did the binding signal turn out when GACTCACA was run?
Answer: The binding signal was -0.0653 E-score.

Question: Which binding signal does the source give for GAGCAGGC here?
Answer: The binding signal was -0.123 E-score.

Question: How did the binding signal turn out when ACCGCCTC was run?
Answer: The binding signal was -0.0778 E-score.

Question: How did the binding signal turn out when AATTCCGC was run?
Answer: Its binding signal is -0.245 E-score.

Question: How did the binding signal turn out when ATACTGAC was run?
Answer: Its binding signal is -0.0543 E-score.

Question: For TAGGCACA, which binding signal is on record?
Answer: Its binding signal is -0.0381 E-score.

Question: Which binding signal does the source give for GTCCAGAC here?
Answer: Its binding signal is 0.0235 E-score.

Question: ATCTCATC was tested. Which binding signal did it give?
Answer: Its binding signal is -0.0463 E-score.

Question: With CCTAACTA as the sequence, how does the binding signal read?
Answer: Its binding signal is -0.0368 E-score.

Question: Which binding signal does the source give for GTTCAAGA here?
Answer: The binding signal was -0.163 E-score.

Question: For ATACGGCA, which binding signal is on record?
Answer: The binding signal was 0.0363 E-score.

Question: With CTCCGGCC as the sequence, how does the binding signal read?
Answer: Its binding signal is -0.0912 E-score.

Question: For AATGAAAG, which binding signal is on record?
Answer: Its binding signal is -0.133 E-score.

Question: With CATAAGAG as the sequence, how does the binding signal read?
Answer: The binding signal was -0.139 E-score.

Question: Which binding signal does the source give for AGAGTCCC here?
Answer: The binding signal was -0.0999 E-score.

Question: AGTGAATG was tested. Which binding signal did it give?
Answer: The binding signal was -0.0081 E-score.

Question: Which binding signal does the source give for ATTACTTG here?
Answer: The binding signal was -0.00398 E-score.

Question: For AAGGCTCT, which binding signal is on record?
Answer: The binding signal was -0.306 E-score.

Question: Which binding signal does the source give for CGGTAGGA here?
Answer: The binding signal was -0.0422 E-score.

Question: With TAATAACA as the sequence, how does the binding signal read?
Answer: Its binding signal is 0.00234 E-score.

Question: With CTTGCAAC as the sequence, how does the binding signal read?
Answer: Its binding signal is -0.168 E-score.

Question: GAATACAC was tested. Which binding signal did it give?
Answer: The binding signal was 0.408 E-score.

Question: Which binding signal does the source give for CCAGAGTC here?
Answer: The binding signal was 0.0461 E-score.

Question: GGGCCTAA was tested. Which binding signal did it give?
Answer: Its binding signal is -0.0706 E-score.

Question: Which binding signal does the source give for ACTACGCT here?
Answer: The binding signal was -0.0243 E-score.

Question: Which binding signal does the source give for GACCCGGA here?
Answer: The binding signal was 0.184 E-score.

Question: For ACGCAGAT, which binding signal is on record?
Answer: Its binding signal is -0.0547 E-score.

Question: How did the binding signal turn out when CTCTTACC was run?
Answer: Its binding signal is -0.055 E-score.

Question: ATATATGC was tested. Which binding signal did it give?
Answer: Its binding signal is -0.116 E-score.

Question: Which binding signal does the source give for AGTTCCTG here?
Answer: Its binding signal is -0.355 E-score.

Question: How did the binding signal turn out when ATACTAAA was run?
Answer: Its binding signal is -0.122 E-score.

Question: AGACGGAT was tested. Which binding signal did it give?
Answer: The binding signal was 0.0819 E-score.

Question: Which binding signal does the source give for CGGTGATC here?
Answer: The binding signal was 0.163 E-score.

Question: Which binding signal does the source give for GCTCCAGA here?
Answer: Its binding signal is -0.134 E-score.

Question: For CGCGCTTC, which binding signal is on record?
Answer: The binding signal was -0.0249 E-score.

Question: How did the binding signal turn out when AGGGCGAC was run?
Answer: The binding signal was 0.0365 E-score.

Question: For ATACACGG, which binding signal is on record?
Answer: The binding signal was 0.401 E-score.

Question: For ATAGTGAG, which binding signal is on record?
Answer: The binding signal was -0.0704 E-score.

Question: With ACTCTCCA as the sequence, how does the binding signal read?
Answer: The binding signal was 0.105 E-score.

Question: How did the binding signal turn out when GGGACAAA was run?
Answer: The binding signal was -0.139 E-score.

Question: For CTCTCACA, which binding signal is on record?
Answer: The binding signal was 0.0243 E-score.

Question: Which binding signal does the source give for CTCAAGGC here?
Answer: Its binding signal is -0.09 E-score.

Question: For GAGTCCTA, which binding signal is on record?
Answer: Its binding signal is 0.0614 E-score.

Question: How did the binding signal turn out when ACTTCTCG was run?
Answer: Its binding signal is -0.0756 E-score.

Question: How did the binding signal turn out when GTACGGTA was run?
Answer: Its binding signal is 0.0455 E-score.

Question: How did the binding signal turn out when TAATTACA was run?
Answer: The binding signal was 0.013 E-score.

Question: Which binding signal does the source give for ACTCGCCC here?
Answer: Its binding signal is 0.126 E-score.

Question: CATCCCAG was tested. Which binding signal did it give?
Answer: Its binding signal is -0.0833 E-score.

— article PMC10668032
